Laboratory results from the RNAGym collection of RNA variant scans (doi:10.7554/elife.90254).
The source gives no read counts; variants with many changes may rest on few reads.

B1: LINE1-mini (parent)
chain: GGCAGAGCUCAACACAGCGUGGCAAAGUGGCUGUGGCUAGACUGCC

Variants of: B1
Assay: self-cleavage, relative activity (ratio to wild type); higher = more cleavage; in vitro, sequencing; the parent is a self-cleaving ribozyme
With UGCAGAGCUCAACACAGCGUGACAAAGCUGCUGUGGCUAGACUGCC [G1U G22A U28C G29U] the self-cleavage was 0.13.
Variant GGCAGAGCUAAACACAGCGUGGCAAAGUGGCUGUGGCUACACUGCA [C10A G40C C46A] has a self-cleavage of 0.04.
GGCAGAGUUAAACACAGCGUGGAAAAGUGGCUGUGGCUAGACUGCC [C8U C10A C23A] gave a self-cleavage of 0.05.
In the case of GGCAGAGCUCAACACAGAGUGGCAAAGUGGCCGUGGCUGGACUGCC [C18A U32C A39G], the self-cleavage is reported as 0.05.
For GGCAGAGCUCAAUGCAGCGUGGCAAAGUCGCUGUCGCUAGACUGCC [C13U A14G G29C G35C], the self-cleavage was 0.06.
With GGCAGAGCUCAACACAGCGUGGCAAAGUGGCUGUGGAUAUAAUGCC [C37A G40U C42A] the self-cleavage was 0.03.
With GGAAGAGCUCAACACAGCGUGGAAAAGUGACAGUGGCUCGACUGCC [C3A C23A G30A U32A A39C] the self-cleavage was 0.04.
Variant GGCAGAGCUCAACACAGCAUGGCAAAGCUGCUGUGGCUAGACUGCC [G19A U28C G29U] has a self-cleavage of 0.64.
For GUCGUAGCUCAACACAGCGUGGCAAAGUGGCUGUGGCUAGACUGCC [G2U A4G G5U], the self-cleavage was 0.06.
GGCAGAGCUUAACACAGAAUGGCAAAGUGGGUGUGGCUAGACAGCC [C10U C18A G19A C31G U43A] gave a self-cleavage of 0.08.
In the case of GGCAGAGCUCAACACAGCGUGGCAAAGUGACUGUGGGCAGACUGCC [G30A C37G U38C], the self-cleavage is reported as 0.05.
Variant GGCAGAGCUCAACAAAGCGUGGCAAGGUGGCUGUGGCGAGACUGCC [C15A A26G U38G] has a self-cleavage of 0.04.
Work on GGCAGAGCUCAAUAUAGCGUGGCAAAGUGGCUGUGGCUAAACUGCC [C13U C15U G40A] yielded a self-cleavage of 0.14.
With GGCAGAGCUUCACACAGGAUGGCAAAAUGGCUGUGGCUAGACUGCC [C10U A11C C18G G19A G27A] the self-cleavage was 0.04.
Work on GGCUAAGCUCAACACAGCGUGGCAAUGUGGCUUUGGGUAGAUUGCC [A4U G5A A26U G33U C37G C42U] yielded a self-cleavage of 0.01.
In the case of GGCAGUGCUCAACACAGCGUGGCAAAGUGGCUGUGGAUACACUGAC [A6U C37A G40C C45A], the self-cleavage is reported as 0.37.
For GGCAGCGCUCAACACAGCGUGGCAAACUCGCUGUGGCUAGACUGGC [A6C G27C G29C C45G], the self-cleavage was 0.09.
In the case of GGCAGAACUCAACACAGCGUGGCAACGUGACUGUGGCUAGACUGCG [G7A A26C G30A C46G], the self-cleavage is reported as 0.15.
With GGCAGAGCUCAACACAGCGUGCCAUAGUGGCUGUGGCUAGACUGAC [G22C A25U C45A] the self-cleavage was 0.37.
GGCAGAGUUCAACACAGAGUGGCAAAGUGGCUGUGGCUAGACUGCA [C8U C18A C46A] showed a self-cleavage of 0.06.
GGCAGAGAUCAAUACAGCGUGGCAAAGUGGCUGUGGCUAGACUGCU [C8A C13U C46U] gave a self-cleavage of 0.74.
In the case of GGCAGUGCUUAACACGGCGUGGCAACGUGGCUGUGGUUCGACUGCC [A6U C10U A16G A26C C37U A39C], the self-cleavage is reported as 0.
Variant GGCAGAUAUCAACAGAGCGUGGCGAAGUGGCUGUGGCUAGACUGCC [G7U C8A C15G A24G] has a self-cleavage of 0.13.
In the case of GGCAGAGUUCAACACAGAGUGGCAAAGUGGCUGUUGCUAGACUGCC [C8U C18A G35U], the self-cleavage is reported as 0.13.
Variant GGUAGAGCUCAACACAGUGUGGCAUAGUGGUUGUGGCUAGAGUGCC [C3U C18U A25U C31U C42G] has a self-cleavage of 0.03.
With GGCAGAGCUCAACACAGCGCGGCAACGUGGCUGUGGCUAGUCUGCC [U20C A26C A41U] the self-cleavage was 0.18.
GGCAUAGAUCAACACAGUGUGGCAAAGUGGCUGUGGCUAGACUGCC [G5U C8A C18U] gave a self-cleavage of 0.07.
Work on GUCAGAGCUCAACACAGCGUGGCAUAGUGGCUGUGGCUAUACUGCC [G2U A25U G40U] yielded a self-cleavage of 0.03.
In the case of GGCAGAGCUCAAUACAGCGUGGAAAAGUGGCUGUGUCUAAACUGCG [C13U C23A G36U G40A C46G], the self-cleavage is reported as 0.17.
For GGCAGAGCUAAAUACGGCGUGGCAAAGUGGCUGUGGCUAUACUGGA [C10A C13U A16G G40U C45G C46A], the self-cleavage was 0.01.
In the case of GGCAGAGCUCAACACAGCGUGGCAAAGUGGAUGUGGCUAGCGUGCC [C31A A41C C42G], the self-cleavage is reported as 0.04.
Variant CGCAUAGCUCAACACAGCGUGGCAAAGUGGCUGUUGCUAGACUGCC [G1C G5U G35U] has a self-cleavage of 0.
Work on GGCAGAGCUGAACACAUCGUGGCAAAGUGGCUGUAGCUAGACUGCC [C10G G17U G35A] yielded a self-cleavage of 0.01.
GGCAGAGCUCAACACAGCGUGACAAAUUGGCUGUGGCUAGACUGAC [G22A G27U C45A] gave a self-cleavage of 0.36.
GCCCGAGCUCAACACAGCGUCGCAAAGUGGCUGUGGCUAGACUGCC [G2C A4C G21C] showed a self-cleavage of 0.1.
Work on GGCAGAGCUCAAUAAAGCGUUGCAAAGUGGCUGUGGCUAGACUGCC [C13U C15A G21U] yielded a self-cleavage of 0.06.
With GUCAGAGCGCAACACGGCGUGGCAAAGUGACUGUGGCUAGACUGCC [G2U U9G A16G G30A] the self-cleavage was 0.01.
For GGCAGGGCUCAACACAGCGUGGCAAAGUGGCUGUGGCUACACUGCU [A6G G40C C46U], the self-cleavage was 0.08.
Variant GGCAGAGGACAACACAGCGUGGCAAAGUAGCUGUGGCUUGACUGCC [C8G U9A G29A A39U] has a self-cleavage of 0.02.
For GACAGAGCUCAACACAGCGUGGCAAAUUAGCUGUGGCUAGACUGCC [G2A G27U G29A], the self-cleavage was 1.34.
In the case of GGCAGAGCUCAACACAGCGUACCAAAGUGGCUAUGGCUAGACUGCC [G21A G22C G33A], the self-cleavage is reported as 0.05.
For AGCAGAGCUUAACACAGCGUGGCACCGUGGCUGUGGCUAGACUGCC [G1A C10U A25C A26C], the self-cleavage was 0.68.
In the case of GGCAGAGCUCAACACAGCGUGGCAAAGUUGCUCUGGAUAGACUGCC [G29U G33C C37A], the self-cleavage is reported as 0.05.
In the case of GGCAGAACUCAAUACAGCGUGGCGAAGUGGCUGUGGCUAGACUGCC [G7A C13U A24G], the self-cleavage is reported as 0.27.
Variant GGCAUAGCUAGACACAGCGUGGCAAAGGCACUGUGGCUAGACUGCC [G5U C10A A11G U28G G29C G30A] has a self-cleavage of 0.01.
GGCAUAGCUCAACACAGCCUGGCAAAGUGGCUCUGGCUUGACUGCC [G5U G19C G33C A39U] gave a self-cleavage of 0.02.
Work on GGCAGAGCUCAACACAGCGUGGCAGAGUGGCUAUGGCUAGACUGAC [A25G G33A C45A] yielded a self-cleavage of 0.04.
With GGCAGAGCACAACACAGCGUGGCUAAGUGGCUGUGACUAGACUGCC [U9A A24U G36A] the self-cleavage was 0.18.
For GGCAGAGCUCAACACAGGGUUGCAAAACGGCUGUGGCUAGACUGCC [C18G G21U G27A U28C], the self-cleavage was 0.72.
Work on GGAAGAGUUCAAGACAGCGUGGCAAAGUGGCUGUGGGUCGACUGCC [C3A C8U C13G C37G A39C] yielded a self-cleavage of 2.29.
For GGCAGAGCUAAAAACAGCGUGGCAAAGUGACUGUGGCUAGACUGCC [C10A C13A G30A], the self-cleavage was 0.04.
Variant GGGAGAGUUCAAUUCAGCUUGGGAAACUGGCUGUCGCUAGACUGCC [C3G C8U C13U A14U G19U C23G G27C G35C] has a self-cleavage of 0.33.
Work on GGCAGAGCUCAACACAGUGUUGCGAAGUGGCUGAGGGUAGACUGCC [C18U G21U A24G U34A C37G] yielded a self-cleavage of 0.
Variant GGCACAGCUCACCACAGCGUGGCAAAGUGGCUAUGGCGAGACUGCC [G5C A12C G33A U38G] has a self-cleavage of 0.02.
CGCAGAGCUAAACACAGCGUGCCAAAGUGGCUGUGGCUAGACUGGC [G1C C10A G22C C45G] showed a self-cleavage of 0.02.
GGCAAAGCUCAACACAGCGUGGCACAGUGGCUGUGACUAGACUGAU [G5A A25C G36A C45A C46U] gave a self-cleavage of 0.05.
